Laboratory results as given in PubChem BioAssay AID2147 (National Center for Advancing Translational Sciences (NCATS), 2009).
Hit rate of the full screen: of about 230,000 compounds, about 3,600 (1.6%) were called active. The shares of active, inactive and inconclusive entries below differ from those in the screen. Calls follow the shape of the dose curve; as a rule, active = well fitted inhibition curve with a large enough effect (not every such curve was filed as active); inconclusive = small, poorly fitted or top-dose-only effect, or another doubt; inactive = no such curve, though single readings can be large or run the other way. Potencies of inconclusive entries are doubtful fits and often do not repeat.

Each molecule was assayed against Lysine-specific demethylase 4E (Homo sapiens) (UniProt B2RXH2) (assay: qHTS Assay for Inhibitors of Human Jumonji Domain Containing 2E (JMJD2E)). Settings: JMJD2E catalytic domain, FDH-coupled NADH fluorescence (FDH is formaldehyde dehydrogenase); series mostly up to 57.1 µM.
Chain of UniProt B2RXH2 (B2RXH2 whole entry, looked up, the tested form may be a part): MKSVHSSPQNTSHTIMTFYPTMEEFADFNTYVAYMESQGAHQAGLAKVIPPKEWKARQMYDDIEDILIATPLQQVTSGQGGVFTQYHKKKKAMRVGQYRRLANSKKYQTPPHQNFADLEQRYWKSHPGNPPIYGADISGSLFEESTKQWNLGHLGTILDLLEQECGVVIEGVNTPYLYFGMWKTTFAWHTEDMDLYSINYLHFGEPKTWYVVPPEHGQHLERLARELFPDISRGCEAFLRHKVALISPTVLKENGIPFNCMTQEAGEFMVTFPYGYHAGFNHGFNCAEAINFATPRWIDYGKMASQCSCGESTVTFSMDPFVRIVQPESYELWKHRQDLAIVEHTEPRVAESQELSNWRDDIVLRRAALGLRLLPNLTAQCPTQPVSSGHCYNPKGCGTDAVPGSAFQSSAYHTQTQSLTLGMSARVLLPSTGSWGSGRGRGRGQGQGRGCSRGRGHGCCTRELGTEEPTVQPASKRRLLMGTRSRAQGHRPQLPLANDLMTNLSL
Also: nearly all actives have a fitted effect of over 50% in size.
Potency is read from the fitted curve at half-maximal effect; tags tell the direction and shape of the fitted curve.

| Compound | Potency |
| --- | --- |
| O=S(=O)(c1ccc(-c2csc(-c3cccnc3)n2)cc1)N1CCCC1 | inconclusive: 39.8 µM [inhibitor, single point] |
| Cc1ccc2cc(CCNC(=O)c3ccc(S(=O)(=O)N4CCCCC4)cc3)c(=O)[nH]c2c1 | inconclusive: 39.8 µM [inhibitor, single point] |
| CCN(CC)S(=O)(=O)c1ccc(C(=O)NCCSc2c[nH]c3ccccc23)cc1 | inactive |
| N#CCCN(Cc1cccnc1)C(=S)NCc1ccco1 | inconclusive: 39.8 µM [inhibitor, single point] |
| Nc1nnc(CC(=O)N/N=C/c2ccc(-c3ccccc3)o2)s1 | inconclusive: 35.5 µM [inhibitor, single point] |
| O=C(/C=C/c1ccc(-c2ccccc2[N+](=O)[O-])o1)c1ccccc1 | inconclusive: 31.6 µM [inhibitor, single point] |
| CC(C)Nc1ncnc2c1cnn2-c1ccc(Cl)cc1 | inconclusive: 28.2 µM [inhibitor, single point] |
| O=C(Nc1ccccc1CC[N+](=O)[O-])N1CCN(c2ccccc2)CC1 | inconclusive: 7.08 µM [inhibitor, single point] |
| CCOC(=O)C(=CNCC(=O)OC)C(=O)OCC | inactive |
| Nc1nonc1C(=O)N/N=C/c1cc(Br)ccc1O | active: 3.55 µM |
| O=C(c1c[nH]c2ccc(S(=O)(=O)N3CCC4(CC3)OCCO4)cc2c1=O)N1CCOCC1 | inconclusive: 35.5 µM [inhibitor, partial curve] |
| CCCn1c(C)cc(/C=C(\C#N)C(=O)OCC(=O)NC(=O)NCC)c1C | inconclusive: 35.5 µM [inhibitor, single point] |
| CCOC(=O)c1sc(NC(=O)CSc2nnnn2-c2ccccc2)nc1C | inactive |
| COC(=O)c1sc(NC(=O)c2oc3ccccc3c2C)nc1C | inconclusive: 6.31 µM [inhibitor, single point] |
| O=C(CSc1ccc(-c2ccco2)nn1)c1cccc([N+](=O)[O-])c1 | inactive |
| O=C(CC1SC(=Nc2ccccc2)N(CCc2c[nH]c3ccccc23)C1=O)Nc1ccccc1F (centres undefined) | inactive |
| c1ccc(-c2nc(-c3ccncc3)n[nH]2)nc1 | inconclusive: 35.5 µM [inhibitor, single point] |
| c1ccn2cc(-c3ccc4c(c3)OCCO4)nc2c1 | inconclusive: 28.2 µM [inhibitor, partial curve] |
| N#Cc1c2c(c(NCCCN3CCOCC3)n3c1nc1ccccc13)CCC2 | inconclusive: 25.1 µM [inhibitor, partial curve] |
| COC(=O)C1=C(C)Nc2nnnn2C1c1ccco1 (centres undefined) | inactive |
| O=C(CCN1C(=O)S/C(=C\c2ccccc2)C1=O)Nc1ccc(S(=O)(=O)Nc2nccs2)cc1 | inactive |
| CNC(=O)c1ccsc1NC(=O)c1ccc2c(c1)CCCC2 | inconclusive: 35.5 µM [inhibitor, single point] |
| CNCCCOc1ccc(Cl)cc1C(C)(C)C | inconclusive: 25.1 µM [inhibitor, single point] |
| CCn1c(C)[n+](CCCS(=O)(=O)[O-])c2cc(Cl)c(Cl)cc21 | inactive |
| NC(=O)CSc1nnc2ccc(-c3ccco3)nn12 | inconclusive: 31.6 µM [inhibitor, partial curve] |

| Compound | Potency |
| --- | --- |
| COc1ccc(CN2CCN(C(=O)c3cccs3)CC2)cc1Br | inactive |
| O=C(CCN1CCOCC1)NNC(=S)NC(=O)c1ccc(Br)cc1 | inactive |
| O=C(CCc1nc(-c2ccccc2)no1)NCCc1ccccc1 | inactive |
| COc1ccc(N(CC(=O)N/N=C/c2cc3ccc(OC)cc3nc2Cl)S(=O)(=O)c2ccccc2)cc1 | inconclusive: 0.891 µM [inhibitor, partial curve, poor fit] |
| O=C(N=c1ccn(-c2nc3ccccc3nc2NS(=O)(=O)c2ccc(Cl)cc2)cc1)c1cccs1 | inconclusive: 25.1 µM [inhibitor, single point] |
| COc1ccc(/C=C/C(=O)NC(=S)NNC(=O)c2cccnc2)cc1OC | inconclusive: 39.8 µM [inhibitor, single point] |
| CCn1c(-c2ccc(F)cc2)n[nH]c1=S | inconclusive: 39.8 µM [inhibitor, single point] |
| Cc1cccc(-n2nnnc2SCC(=O)c2cc(C)n(Cc3ccco3)c2C)c1 | inactive |
| N#CCCN(CCC#N)S(=O)(=O)c1ccc(C(=O)Nc2nnc(C3=COCCO3)o2)cc1 | inconclusive: 39.8 µM [inhibitor, single point] |
| CC1(C)Cc2c(c(N3CCOCC3)nc3sc4c(NCCN5CCOCC5)nnnc4c23)CS1 | inconclusive: 39.8 µM [inhibitor, single point] |
| COc1cccc(NC(=O)c2oc3ccccc3c2NC(=O)c2ccc3c(c2)OCO3)c1 | inconclusive: 28.2 µM [inhibitor, partial curve] |
| O=C(Nc1ccc(N2CCN(C(=O)c3cccs3)CC2)c(Cl)c1)c1cccnc1 | inactive |
| c1ccc2c(c1)nnn2Cc1nnc2sc(-c3ccncc3)nn12 | inactive |
| Cc1c(C)n(CC(O)CNCCO)c2ccccc12 (centres undefined) | inconclusive: 28.2 µM [inhibitor, single point] |
| CC1CCN(S(=O)(=O)c2ccc3c(c2)C(=NO)c2cc(S(=O)(=O)N4CCC(C)CC4)ccc2-3)CC1 | inconclusive: 20 µM [inhibitor, partial curve] |
| NS(=O)(=O)c1ccc(N/N=C2/CCCc3ccccc32)c([N+](=O)[O-])c1 | inactive |
| Cc1[nH]c2ccccc2c1/C=N/Nc1ccc(F)cc1F | inconclusive: 25.1 µM [inhibitor, single point] |
| CCS(=O)(=O)N1CCC(c2nc(-c3ccc(C(F)(F)F)cc3)no2)CC1 | inactive |
| CN(C)N=Nc1ccc(S(N)(=O)=O)cc1 | inactive |
| CS(=O)(=O)N1N=C(c2cccs2)CC1c1ccccc1 (centres undefined) | inactive |
| Cc1[nH]n(-c2ccccc2)c(=S)c1C=Nc1cccc([N+](=O)[O-])c1 | active: 5.62 µM |
| CC(C)OC(=O)c1cn(-c2ccccc2)nc1-c1ccco1 | inconclusive: 39.8 µM [inhibitor, single point] |
| Cc1ccc2c(c1)sc1ncc(NC(=O)c3ccc(F)cc3)c(=O)n12 | inconclusive: 3.98 µM [inhibitor, single point] |
| Cc1cc(=O)oc2cc(OCC(=O)N3c4ccccc4CC3C)ccc12 (centres undefined) | inconclusive: 28.2 µM [inhibitor, partial curve] |
| N=C(N)SCc1nc2ccccc2c(=O)n1-c1ccccc1Cl | inconclusive: 22.4 µM [inhibitor, partial curve] |

| Compound | Potency |
| --- | --- |
| Cc1[nH]n(-c2ncc(-c3ccccc3)s2)c(=O)c1C(c1ccc(Cl)cc1)C(C#N)C#N (centres undefined) | inactive |
| CN1CCc2nc(NC(=O)COc3ccc4ccccc4c3)sc2C1 | inconclusive: 39.8 µM [inhibitor, single point] |
| CCN(CC)S(=O)(=O)c1ccc(N/N=C/c2cc(OC)ccc2O)nc1 | active: 12.6 µM |
| COCc1cc(C)n(CC(=O)Nc2c(C)cccc2C)c(=O)c1C#N | inconclusive: 31.6 µM [inhibitor, partial curve] |
| CCOC(=O)CCc1c(C)c2ccc(O)cc2oc1=O | inconclusive: 28.2 µM [inhibitor, partial curve] |
| CN1CCc2nc3sc(C(=O)NCc4ccccc4)c(N)c3cc2C1 | inconclusive: 12.6 µM [inhibitor, partial curve] |
| O=C(c1cccnc1)N1CCN(CCCc2ccccc2)CC1 | inconclusive: 39.8 µM [inhibitor, single point] |
| O=C(Oc1c(-c2ccco2)oc2ccccc2c1=O)c1cccnc1 | inconclusive: 14.1 µM [inhibitor, partial curve] |
| Cc1ccc(-c2nc3cccnc3s2)cc1NS(=O)(=O)c1ccc2c(c1)OCCO2 | inconclusive: 25.1 µM [inhibitor, partial curve] |
| CC(c1ccccc1)n1c(Cn2ncc3ccccc3c2=O)n[nH]c1=S (centres undefined) | inactive |
| CCCC(=O)Nc1ccc(Cl)c(NC(=O)c2cccc(OC)c2)c1 | inactive |
| Cc1cccc(NC(=O)c2cc(-c3ccc(C)s3)nc3ccccc23)n1 | inconclusive: 28.2 µM [inhibitor, partial curve] |
| CCN(CC)S(=O)(=O)c1ccc2c(c1)nc(CCC(=O)Nc1cccc(C(F)(F)F)c1)n2CC | inconclusive: 31.6 µM [inhibitor, single point] |
| Cc1[nH]c2ccccc2c1C(C[N+](=O)[O-])c1ccco1 (centres undefined) | inconclusive: 35.5 µM [inhibitor, single point] |
| Cn1c(N=NC(=O)c2ccccc2)c(O)c2ccccc21 | inactive |
| O=C(NCc1cccnc1)c1cnc2sccn2c1=O | inconclusive: 31.6 µM [inhibitor, partial curve] |
| COc1cc(/C=C2\SC(=S)N(N3CCOCC3)C2=O)cc(OC)c1OC | inactive |
| COc1ccc(C(=O)NC(=S)Nc2nc(C)c(C(=O)N(C)C)s2)cc1 | inactive |
| COc1cccc(N/C(SCc2ccccc2Cl)=C(/C#N)C(=O)NCc2cccs2)c1 | inactive |
| CCOC(=O)N1CCN(C(=O)c2nn(-c3cc(OC)cc(OC)c3)c(=O)c3ccccc23)CC1 | inactive |
| Cc1cccc(N/C=C(\[N+](=O)[O-])S(=O)(=O)c2ccccc2)c1C | inconclusive: 39.8 µM [inhibitor, single point] |
| CN1CCN(NC(=O)C2CC2)CC1 | inactive |
| CCOc1ccc(NCC2CCOC(C)(C)C2)cc1 (centres undefined) | active: 20 µM |
| Cc1cc(NC(=O)CSc2ncn[nH]2)no1 | inconclusive: 20 µM [inhibitor, partial curve] |
